{"source": "PubChem BioAssay AID540317", "about": "(National Center for Advancing Translational Sciences (NCATS), 2011)", "note": "Several values for one entry are separate records, joined by “and”; a condition that tells them apart may be missing. Equal entries are not always repeated. In all, about 390,000 compounds went through this assay and about 2,200 (0.56%) were called active. Inconclusive means that the source gave no clear call. Such entries were picked first, then a sample of the others. Calls follow the shape of the dose curve; as a rule, active = well fitted inhibition curve with a large enough effect; inconclusive = small, poorly fitted or top-dose-only effect; inactive = no such curve, though single readings can be large or run the other way. Potencies of inconclusive entries are doubtful fits and often do not repeat. Potency is read from the fitted curve at half-maximal effect; tags tell the direction and shape of the fitted curve."}
{"target": "Chromobox protein homolog 1 (Homo sapiens) (UniProt P83916)", "sequence (P83916 whole entry, looked up)": "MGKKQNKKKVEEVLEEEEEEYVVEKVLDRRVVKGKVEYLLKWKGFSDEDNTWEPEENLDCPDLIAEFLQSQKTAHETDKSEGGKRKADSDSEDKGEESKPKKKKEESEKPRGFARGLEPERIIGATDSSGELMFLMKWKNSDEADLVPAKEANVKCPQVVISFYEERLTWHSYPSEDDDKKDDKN", "assay": "HTS for Inhibitors of HP1-beta Chromodomain Interactions with Methylated Histone Tails; also: nearly all actives have a fitted effect of over 70% in size", "conditions": "AlphaScreen HP1-beta / biotin-H3K9me3 peptide binding; series mostly up to 114 µM", "procedure,_shortened": "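HP1-beta protein (50 nM final) preincubated 30 min at room temperature with biotinylated H3(1-18)K9me3 peptide (50 nM) in PBS pH 7.4, 0.01% Tween-20, then compound added for 30 min. AlphaScreen streptavidin donor/nickel chelate acceptor beads (10 ug/mL final), 30 min dark, luminescence read.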"}
{"smiles": "CCOc1ccc(CNC(=S)N/N=C/c2ccc(OC)c(OC)c2)cc1", "Potency": "inconclusive: 31.6 µM [inhibitor, single point]"}
{"smiles": "Cc1sc(NC(=O)c2ccco2)c(C(=O)c2ccc(Cl)cc2)c1C", "Potency": "inconclusive: 20 µM [inhibitor, full curve, poor fit]"}
{"smiles": "CCCCOC(=O)CCc1c(C)[nH]c(=O)c(C#N)c1C", "Potency": "inactive"}
{"smiles": "CCOC(=O)C1=C(NC(=S)NC(=O)c2ccccc2)c2ccccc2CC1(C)CC", "note": "(stereo unspecified)", "Potency": "inconclusive: 22.4 µM [inhibitor, full curve]"}
{"smiles": "CCOC(=O)[C@@H]1[C@H]2COc3ccc(Br)cc3[C@@H]2N2C(=O)N(c3ccc(OC)cc3)C(=O)[C@@]12C", "Potency": "inactive"}
{"smiles": "COc1ccccc1C(=O)NCC(c1cccs1)N1CCc2ccccc21", "note": "(stereo unspecified)", "Potency": "inconclusive: 50.1 µM [inhibitor, partial curve, poor fit]"}
{"smiles": "O=C(NCc1ccccc1F)c1cc2ccccn2n1", "Potency": "inactive"}
{"smiles": "O=C1c2cccc3cccc(c23)C(=O)N1Cc1cccnc1", "Potency": "inactive"}
{"smiles": "CC1CCc2[nH]c3ccc(C(=O)NCC4CCCO4)cc3c2C1", "note": "(stereo unspecified)", "Potency": "inconclusive: 70.8 µM [inhibitor, partial curve, poor fit]"}
{"smiles": "COc1ccc(/C(=C/Nc2cccc(Br)c2)C(C)=O)cc1OC", "Potency": "inconclusive: 44.7 µM [inhibitor, partial curve, poor fit]"}
{"smiles": "Cc1cccc(-c2nc(C)c(CCNC(=O)C(=O)Nc3c(C)cc(C)cc3C)s2)c1", "Potency": "inactive"}
{"smiles": "COc1ccc(Oc2coc3cc(OC(=O)c4cccs4)ccc3c2=O)cc1", "Potency": "inactive"}
{"smiles": "CC(C)CCn1c(=O)c2ccccc2n2c(=S)[nH]nc12", "Potency": "active: 70.8 µM"}
{"smiles": "Cc1n[nH]c(C)c1SCC(=O)Nc1ccc(F)cc1", "Potency": "inactive"}
{"smiles": "O=C(O)c1ccc2cccnc2n1", "Potency": "inconclusive: 25.1 µM [inhibitor, partial curve, poor fit]"}
{"smiles": "COc1ccccc1CNc1cc(-c2ccccc2)ccc1OC", "Potency": "inconclusive: 31.6 µM [inhibitor, single point]"}
{"smiles": "S=C(c1nc2ccccc2[nH]1)N1CCOCC1", "Potency": "inconclusive: 25.1 µM [inhibitor, partial curve, poor fit]"}
{"smiles": "Cc1ccc(OCC(=O)c2cc(C)n(-c3ccccc3)c2C)c([N+](=O)[O-])n1", "Potency": "inconclusive: 14.1 µM [inhibitor, full curve, poor fit]"}
{"smiles": "Cc1ccc(O)c(C(=O)/C=C/c2ccc3c(c2)OCCO3)c1", "Potency": "inconclusive: 25.1 µM [inhibitor, partial curve]"}
{"smiles": "CN(C)c1ccc(/C=C(/NC(=O)c2ccccc2)C(=O)N/N=C/c2ccc([N+](=O)[O-])c(O)c2)cc1", "Potency": "inconclusive: 25.1 µM [inhibitor, full curve]"}
{"smiles": "COC(=O)c1ccc(-n2c(CCC(=O)O)ccc2-c2ccc(C)cc2)cc1", "Potency": "inactive"}
{"smiles": "CCN1CCN(C(=S)Nc2sc(C)c(-c3ccccc3)c2C(=O)OC)CC1", "Potency": "inconclusive: 50.1 µM [inhibitor, partial curve]"}
{"smiles": "CCc1ccc(NC(=O)c2ccccc2SC)cc1", "Potency": "inactive"}
{"smiles": "O=S(=O)(NCCOCCNS(=O)(=O)c1ccccc1)c1ccccc1", "Potency": "inactive"}
{"smiles": "O=C(O)CCCN1C(=O)/C(=C\\C(Cl)=C\\c2ccccc2)SC1=S", "Potency": "inconclusive: 22.4 µM [inhibitor, partial curve, poor fit]"}
{"smiles": "CCOc1ccccc1C(=O)NCC(=O)NCCc1ccc(S(N)(=O)=O)cc1", "Potency": "inconclusive: 89.1 µM [inhibitor, single point]"}
{"smiles": "N#C/C(C(=O)Nc1ccc(Cl)cc1)=C(/S)Nc1ccccc1", "Potency": "inconclusive: 15.8 µM [inhibitor, full curve]"}
{"smiles": "Cc1cccc2sc(NC(=O)CCn3cccc3)nc12", "Potency": "inconclusive: 70.8 µM [inhibitor, partial curve]"}
{"smiles": "O=c1[nH]nc(Cc2ccc(-c3ccccc3Cl)o2)c2ccccc12", "Potency": "inconclusive: 31.6 µM [inhibitor, partial curve]"}
{"smiles": "CN(C)CCCSc1nc2ccccc2s1", "Potency": "inconclusive: 31.6 µM [inhibitor, partial curve, poor fit]"}
{"smiles": "COc1cc(/C=N/n2c(-c3n[nH]c4c3CCC4)n[nH]c2=S)ccc1O", "Potency": "inconclusive: 79.4 µM [inhibitor, partial curve]"}
{"smiles": "COc1ccc2c(c1)CCC1=C2NC(=S)NC1c1ccc(N(C)C)cc1", "note": "(stereo unspecified)", "Potency": "inconclusive: 17.8 µM [inhibitor, full curve]"}
{"smiles": "Oc1[nH]c2ccccc2c1N=NC(=S)NCCc1ccccc1", "Potency": "inconclusive: 28.2 µM [inhibitor, partial curve, poor fit]"}
{"smiles": "N#Cc1ccsc1NC(=O)CN1CCN(c2ccc(O)cc2)CC1", "Potency": "inconclusive: 44.7 µM [inhibitor, single point]"}
{"smiles": "COC(=O)C1=C(N)Oc2cc(N(C)C)ccc2C1c1ccccc1OC", "note": "(stereo unspecified)", "Potency": "inconclusive: 7.94 µM [inhibitor, full curve, poor fit]"}
{"smiles": "S=c1[nH]cc(-c2ccccc2)[nH]1", "Potency": "inactive"}
{"smiles": "CCCCc1nn2c(=O)cc(COC(=O)c3cccc(NC(=O)CCc4ccccc4)c3)nc2s1", "Potency": "inactive"}
{"smiles": "CCN(CC)c1ccc(NC(=O)CSC(=O)c2ccccc2)cc1", "Potency": "inconclusive: 15.8 µM [inhibitor, partial curve, poor fit]"}
{"smiles": "CCc1ccc(-n2c(=O)c3c(C)c(C)sc3n(CC(=O)NCc3ccc(C)cc3)c2=O)cc1", "Potency": "inactive"}
{"smiles": "CCOc1ccc2nc(N3CCCC(C(=O)NCC4CCCO4)C3)sc2c1", "note": "(stereo unspecified)", "Potency": "inactive"}
{"smiles": "Cc1cc(Br)cc(C)c1OCCCCN(C)C", "Potency": "inconclusive: 50.1 µM [inhibitor, single point]"}
{"smiles": "CCn1cc(C(=O)O)c(=O)c2cnc(N3CCN(C(=S)NC(=O)c4ccc(Cl)cc4)CC3)nc21", "Potency": "inactive"}
{"smiles": "COc1ccc(CNCC(=O)Nc2ccccc2-n2cccc2)cc1", "Potency": "inconclusive: 17.8 µM [inhibitor, partial curve, poor fit]"}
{"smiles": "O=C(COc1ccc(Cl)cc1Cl)Nc1cccc(-c2ccc(N3CCOCC3)nn2)c1", "Potency": "inconclusive: 89.1 µM [inhibitor, single point]"}
{"smiles": "c1cc2c(cc1C1CCCCC1)c1c3n2CCCNC3CCC1", "note": "(stereo unspecified)", "Potency": "inconclusive: 50.1 µM [inhibitor, partial curve]"}
{"smiles": "O=C(Nc1ccc(F)cc1)c1ccccc1Oc1ccc(C(F)(F)F)cc1[N+](=O)[O-]", "Potency": "inconclusive: 17.8 µM [inhibitor, partial curve, poor fit]"}
{"smiles": "Cc1ccc(C(c2sc3nc(C)nn3c2O)N2CCN(c3ccccc3)CC2)cc1", "note": "(stereo unspecified)", "Potency": "inconclusive: 22.4 µM [inhibitor, partial curve, poor fit]"}
{"smiles": "CCc1cccc(C)c1NC(=O)c1cc(S(=O)(=O)NCc2ccccc2Cl)ccc1F", "Potency": "inactive"}
{"smiles": "Cc1csc(NC(=O)c2ccc3ccccc3n2)n1", "Potency": "inactive"}
{"smiles": "Cc1ccc(-c2nc3cnccn3c2Nc2c(C)cccc2C)o1", "Potency": "inconclusive: 70.8 µM [inhibitor, single point] and inconclusive: 50.1 µM [inhibitor, partial curve, poor fit]"}
{"smiles": "CC(C)c1ccc(N=C(N)N=C(N)N)cc1", "Potency": "inactive"}
{"smiles": "CCOC(=O)c1c(C)[nH]c(C(=O)COC(=O)COc2ccccc2C=O)c1C", "Potency": "inactive"}
{"smiles": "COc1ccccc1N1CCN(Cc2cccc(OC)c2OC)CC1", "Potency": "inconclusive: 56.2 µM [inhibitor, partial curve, poor fit]"}
{"smiles": "Cc1nn(CC(=O)Nc2ccccc2C(F)(F)F)c(=O)c2cccn12", "Potency": "inconclusive: 39.8 µM [inhibitor, partial curve]"}
{"smiles": "CCOC(=O)c1cnc2c(-c3ccc(F)cc3)cnn2c1C(F)(F)F", "Potency": "inactive"}
{"smiles": "O=c1c2ccccc2nnn1CSc1nc2ccccc2c(=O)n1CCCO", "Potency": "inactive"}
{"smiles": "COc1cc(/C=N/Nc2ccc(F)cc2F)cc(OC)c1O", "Potency": "inconclusive: 89.1 µM [inhibitor, single point]"}
{"smiles": "CC(=O)Nc1ccc(NC(=O)c2ccc(-n3c(C)ccc3C)cc2)cc1", "Potency": "inactive"}
{"smiles": "COc1cccc(C(=O)N2CCN(C3CCC(c4ccccc4)CC3)CC2)c1OC", "note": "(stereo unspecified)", "Potency": "inconclusive: 50.1 µM [inhibitor, partial curve, poor fit]"}
{"smiles": "CCn1cnc2cc(NCc3ccc(Br)cc3)ccc21", "Potency": "inconclusive: 50.1 µM [inhibitor, partial curve, poor fit]"}
{"smiles": "Cc1sc(NC(=O)CSc2n[nH]c(N)n2)c(C#N)c1C", "Potency": "inactive"}
{"smiles": "CC(C)CNc1oc(-c2ccccc2Cl)nc1C#N", "Potency": "inconclusive: 39.8 µM [inhibitor, partial curve]"}
{"smiles": "Cc1cc(C(=O)N2CCc3ccccc3C2)c(C)o1", "Potency": "inactive"}
{"smiles": "CCCS(=O)(=O)N1CCN(Cc2ccccc2C(F)(F)F)CC1", "Potency": "inconclusive: 79.4 µM [inhibitor, partial curve]"}
{"smiles": "COc1cccc(NC(C)C(=O)Nc2cc([N+](=O)[O-])ccc2Cl)c1", "note": "(stereo unspecified)", "Potency": "inconclusive: 79.4 µM [inhibitor, single point]"}
{"smiles": "N#Cc1nc(Cc2ccccc2)oc1N1CCC(Cc2ccccc2)CC1", "Potency": "inconclusive: 8.91 µM [inhibitor, full curve, poor fit]"}
{"smiles": "Nc1ccc2nc(-c3cccc(-c4nc5ccc(N)cc5[nH]4)n3)[nH]c2c1", "Potency": "inconclusive: 39.8 µM [inhibitor, full curve]"}
{"smiles": "CCN(CC)c1ccc(-n2c(C)cc(C=O)c2C)cc1", "Potency": "inconclusive: 50.1 µM [inhibitor, single point]"}
{"smiles": "COc1ccc(CNC(=O)c2ccc(Br)o2)cc1", "Potency": "inactive"}
{"smiles": "Cc1ccc(Nc2nc(C)cs2)cc1", "Potency": "inconclusive: 14.1 µM [inhibitor, full curve]"}
{"smiles": "COC(=O)CCC(=O)OC1(C)C(=O)C2=COC(c3ccc(OC)cc3)=CC2=C(Br)C1=O", "note": "(stereo unspecified)", "Potency": "inconclusive: 50.1 µM [inhibitor, partial curve, poor fit]"}
